Assay results taken from publication PMC9974451.
Changes are numbered by the printed parent chain. Results are given in words; binding and its absence hold for the method and conditions named. For some of these results: Binding seen in cells or lysates may run through a third protein. Some results given as binding are weak or reduced against the parent protein; the word gives no strength. Tags and fused reporters may be left off the sequences shown. One block for each substance: values may come before it.

The chains behind the UniProt entries cited, without tags or fusion partners. Where a name states a change or a piece, a line headed by the entry shows the natural chain unless it says otherwise. Residues count along the entry.
UniProt O14980: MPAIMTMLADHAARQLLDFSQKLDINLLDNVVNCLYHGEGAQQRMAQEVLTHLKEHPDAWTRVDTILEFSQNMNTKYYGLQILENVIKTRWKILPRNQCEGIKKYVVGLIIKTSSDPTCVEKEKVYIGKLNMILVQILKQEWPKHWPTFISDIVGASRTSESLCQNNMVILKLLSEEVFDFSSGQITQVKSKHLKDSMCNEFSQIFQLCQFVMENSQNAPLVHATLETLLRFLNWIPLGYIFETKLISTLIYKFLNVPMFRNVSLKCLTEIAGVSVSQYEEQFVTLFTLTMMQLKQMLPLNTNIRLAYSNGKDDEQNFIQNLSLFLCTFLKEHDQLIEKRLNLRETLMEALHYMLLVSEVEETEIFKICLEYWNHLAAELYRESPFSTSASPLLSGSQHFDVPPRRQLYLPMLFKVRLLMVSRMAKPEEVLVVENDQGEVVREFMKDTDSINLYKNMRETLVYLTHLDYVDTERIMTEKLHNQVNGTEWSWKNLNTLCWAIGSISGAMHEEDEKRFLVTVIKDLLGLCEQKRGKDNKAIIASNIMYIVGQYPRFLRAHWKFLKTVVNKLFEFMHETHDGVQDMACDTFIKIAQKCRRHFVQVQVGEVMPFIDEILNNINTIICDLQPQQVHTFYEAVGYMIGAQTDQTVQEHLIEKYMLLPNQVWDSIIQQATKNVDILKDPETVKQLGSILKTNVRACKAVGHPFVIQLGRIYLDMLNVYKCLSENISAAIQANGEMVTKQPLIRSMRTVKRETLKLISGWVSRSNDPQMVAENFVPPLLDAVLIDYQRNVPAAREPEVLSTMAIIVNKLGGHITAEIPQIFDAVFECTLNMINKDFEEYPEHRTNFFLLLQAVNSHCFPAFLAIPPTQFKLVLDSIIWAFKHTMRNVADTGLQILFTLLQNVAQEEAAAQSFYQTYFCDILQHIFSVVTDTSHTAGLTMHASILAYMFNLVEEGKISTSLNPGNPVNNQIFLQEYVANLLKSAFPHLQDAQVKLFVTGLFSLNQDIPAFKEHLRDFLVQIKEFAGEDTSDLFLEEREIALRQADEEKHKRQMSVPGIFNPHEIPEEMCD
UniProt Q92973: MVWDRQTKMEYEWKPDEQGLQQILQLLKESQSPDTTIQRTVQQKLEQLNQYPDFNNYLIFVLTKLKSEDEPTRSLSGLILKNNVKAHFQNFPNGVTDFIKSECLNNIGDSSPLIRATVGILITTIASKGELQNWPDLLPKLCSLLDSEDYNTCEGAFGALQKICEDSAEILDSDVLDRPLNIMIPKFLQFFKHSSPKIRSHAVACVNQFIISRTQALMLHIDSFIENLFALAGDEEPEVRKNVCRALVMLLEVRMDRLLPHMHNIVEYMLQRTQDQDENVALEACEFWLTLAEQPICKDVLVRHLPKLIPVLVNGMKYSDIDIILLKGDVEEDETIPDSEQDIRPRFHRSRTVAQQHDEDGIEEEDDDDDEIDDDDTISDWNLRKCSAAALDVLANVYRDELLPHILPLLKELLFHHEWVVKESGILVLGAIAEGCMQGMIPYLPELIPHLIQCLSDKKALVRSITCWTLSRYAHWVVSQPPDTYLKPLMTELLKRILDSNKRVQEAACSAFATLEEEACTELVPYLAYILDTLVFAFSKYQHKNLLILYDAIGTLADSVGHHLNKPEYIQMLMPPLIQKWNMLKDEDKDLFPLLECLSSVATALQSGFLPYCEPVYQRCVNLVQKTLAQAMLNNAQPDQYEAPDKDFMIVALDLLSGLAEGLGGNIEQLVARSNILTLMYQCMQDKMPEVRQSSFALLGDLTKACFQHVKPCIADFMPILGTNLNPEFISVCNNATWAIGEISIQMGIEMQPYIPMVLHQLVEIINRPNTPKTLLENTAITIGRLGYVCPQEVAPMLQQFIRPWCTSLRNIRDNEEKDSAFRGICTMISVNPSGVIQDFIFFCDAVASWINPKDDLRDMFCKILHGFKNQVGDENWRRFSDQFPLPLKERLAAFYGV
His-TNPO1 (transportin 1): residues 9-898 of Q92973
MBP-TNPO1 ΔN (aa 518-890): residues 526-898 of Q92973
UniProt Q14974: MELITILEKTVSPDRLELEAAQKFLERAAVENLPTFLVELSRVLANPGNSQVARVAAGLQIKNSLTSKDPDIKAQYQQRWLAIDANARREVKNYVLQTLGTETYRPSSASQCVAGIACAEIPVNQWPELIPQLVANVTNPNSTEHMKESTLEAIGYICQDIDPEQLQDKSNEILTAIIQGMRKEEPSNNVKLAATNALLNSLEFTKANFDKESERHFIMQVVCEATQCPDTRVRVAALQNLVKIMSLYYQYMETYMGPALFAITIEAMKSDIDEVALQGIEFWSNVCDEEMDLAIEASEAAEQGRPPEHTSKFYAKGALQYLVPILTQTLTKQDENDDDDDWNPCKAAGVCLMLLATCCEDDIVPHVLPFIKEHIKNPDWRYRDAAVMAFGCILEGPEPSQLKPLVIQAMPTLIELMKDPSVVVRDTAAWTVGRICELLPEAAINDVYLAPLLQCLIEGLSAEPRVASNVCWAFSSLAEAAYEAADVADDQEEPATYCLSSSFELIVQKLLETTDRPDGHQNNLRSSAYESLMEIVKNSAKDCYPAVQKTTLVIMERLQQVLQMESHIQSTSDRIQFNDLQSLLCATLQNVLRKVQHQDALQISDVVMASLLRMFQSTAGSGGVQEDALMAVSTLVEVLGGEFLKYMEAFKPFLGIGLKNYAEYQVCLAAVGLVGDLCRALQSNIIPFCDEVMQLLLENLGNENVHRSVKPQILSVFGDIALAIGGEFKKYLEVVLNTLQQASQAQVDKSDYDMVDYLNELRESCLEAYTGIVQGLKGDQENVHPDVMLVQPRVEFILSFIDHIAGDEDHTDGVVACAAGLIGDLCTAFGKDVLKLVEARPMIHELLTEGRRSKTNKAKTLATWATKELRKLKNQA

Columns and labels:
[1] = target: T1, His-NOSIP-MBP K78AK79A (UniProt Q9Y314); experiment: pull-down; 100 pmol His-NOSIP-MBP (WT or K78A/K79A) or MBP immobilised on amylose beads, 100 pmol purified His-tagged NTR, with or without 300 pmol RanQ69L(1-180)-GTP, 3 h, 4 °C, TPB; SDS-PAGE, Coomassie; both purified
T1 sequence: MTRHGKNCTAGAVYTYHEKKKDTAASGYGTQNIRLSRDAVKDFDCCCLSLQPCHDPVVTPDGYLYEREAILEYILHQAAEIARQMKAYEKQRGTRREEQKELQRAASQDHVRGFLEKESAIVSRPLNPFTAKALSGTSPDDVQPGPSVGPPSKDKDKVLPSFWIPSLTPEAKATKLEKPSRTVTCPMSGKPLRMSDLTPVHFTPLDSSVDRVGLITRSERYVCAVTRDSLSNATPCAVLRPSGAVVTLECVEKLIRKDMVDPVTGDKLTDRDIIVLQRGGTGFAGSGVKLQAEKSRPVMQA

[2] = target: T2, His-NOSIP-MBP (nitric oxide synthase interacting protein) (UniProt Q9Y314); experiment: as above
T2 sequence: T1 sequence with A78K, A79K

[3] = target: T2, His-NOSIP-MBP (nitric oxide synthase interacting protein); experiment: pull-down; competition among NTRs: 100 pmol His-NOSIP-MBP immobilised on amylose beads, 100 pmol of one NTR and increasing amounts of the other; Coomassie; both purified
[4] = target: T3, GST-NOSIP (UniProt Q9Y314); experiment: pull-down; GST-M9 or GST-NOSIP immobilised on glutathione Sepharose beads, MBP-tagged TNPO1 FL, ΔN or ΔC, with or without RanQ69L(1-180)-GTP; Coomassie; both purified
T3 sequence: T1 sequence with A78K, A79K

[5] = target: T2, His-NOSIP-MBP (nitric oxide synthase interacting protein); experiment: pull-down; 600 pmol His-NOSIP-MBP or MBP immobilised on MBP-selector beads, 200 μl HeLa cytosol (14.3 mg/ml), with or without 2000 pmol RanQ69L(1-180)-GTP, 6 h, 4 °C, transport buffer (TPB); Western blot; only the target purified
[6] = target: T3, GST-NOSIP; experiment: pull-down; 100 pmol GST-IBB, GST-NOSIP or GST immobilised on glutathione Sepharose beads, 100 pmol His-S-tagged importin β FL, ΔN or ΔC; Western blot with anti-importin β; both purified

binding [1]: no binding (tested: 100 pmol)
Substance: His-CRM1 (from UniProt O14980 1-1071)

binding [2]: binds
binding [3]: binds
Substance: His-TNPO1 (transportin 1) (from UniProt Q92973-2 1-890)

binding [4]: binds weakly
Substance: MBP-TNPO1 ΔN (aa 518-890) (from UniProt Q92973-2 518-890) (domain or fragment)

binding [5]: binds
Substance: importin β (endogenous, HeLa cytosol) (from UniProt Q14974 1-876)

binding [6]: binds weakly
Substance: importin β ΔN (aa 304-876), His-S-tagged (from UniProt Q14974 304-876) (domain or fragment)

binding [5]: binds
Substance: transportin 1 (endogenous, HeLa cytosol) (from UniProt Q92973 1-898)
